# The list shows a part of the results.
# How the values were obtained:
# HSkMC = human skeletal muscle cells; test: cytotoxicity call (relative viability < 0.9); details: 10 µM
# HepG2 = test: cytotoxicity call (relative viability < 0.9); details: 10 µM
# S. aureus RN4220 = test: growth inhibition call (relative growth <= 0.2); details: 50 µM
SMILES,cytotoxicity call (HSkMC),cytotoxicity call (HepG2),growth inhibition call (S. aureus RN4220)
O=C(NCc1ccccc1)C1=C[C@H](c2ccc(Br)cc2)C[C@H](OCc2ccc(CO)cc2)O1,inactive,inactive,inactive
O=C([O-])CCCc1ccccc1.[Na+],inactive,inactive,inactive
COCC#Cc1cnc2c(c1)C(=O)N([C@@H](C)CO)C[C@@H](C)[C@H](CN(C)S(=O)(=O)c1cn(C)cn1)O2,inactive,inactive,inactive
C[C@@H]1CN([C@@H](C)CO)C(=O)c2cc(NC(=O)c3ccccc3)ccc2O[C@@H](C)CCCCO[C@@H]1CN(C)Cc1ccc2c(c1)OCO2,inactive,inactive,inactive
C[C@H](CO)N1C[C@H](C)[C@@H](CN(C)CC2CCCCC2)OCCCC[C@H](C)Oc2ccc(NC(=O)CCC(F)(F)F)cc2C1=O,inactive,inactive,inactive
C[C@H]1CN([C@@H](C)CO)C(=O)Cc2cc(NS(=O)(=O)c3ccccc3)ccc2O[C@@H]1CN(C)S(=O)(=O)c1ccccc1,inactive,inactive,inactive
C[C@H]1CCCCO[C@H](CN(C)C)[C@@H](C)CN([C@@H](C)CO)C(=O)c2cc(NC(=O)CCCN(C)C)ccc2O1,inactive,inactive,inactive
Cc1ccc(S(=O)(=O)N(C)C[C@H]2Oc3ncc(-c4ccncc4)cc3C(=O)N([C@H](C)CO)C[C@@H]2C)cc1,inactive,inactive,inactive
C[C@H]1CCCCO[C@@H](CN(C)C(=O)Nc2ccc(C(F)(F)F)cc2)[C@@H](C)CN([C@@H](C)CO)C(=O)c2cc(NC(=O)Nc3ccc(F)cc3)ccc2O1,inactive,inactive,inactive
O=S1(=O)CCOCC1,inactive,inactive,inactive
CC(C)CS(=O)(=O)N1CCC2(CC1)[C@H]1CN(c3ncccn3)C[C@@H]1C(=O)N2C,inactive,inactive,inactive
CC1=C(/C=C/C(C)=C/C=C/C(C)=C/CO)C(C)(C)CCC1,inactive,inactive,inactive
C[C@@H]1C(=O)O[C@@H]2C[C@@](C)(O)[C@H]3C[C@H]4O[C@@]4(C)[C@@]3(O)C(=O)[C@@H]12,inactive,inactive,inactive
C[C@@H]1CN([C@H](C)CO)C(=O)Cc2cc(NC(=O)Cn3cnnn3)ccc2O[C@H]1CN(C)C(=O)Nc1ccc(F)cc1,inactive,inactive,inactive
CCC1OC(=O)CC(O)C(C)C(OC2OC(C)C(O)C(N(C)C)C2O)C(CCN2CC(C)CC(C)C2)CC(C)C(=O)C=CC(C)=CC1COC1OC(C)C(O)C(OC)C1OC (stereo unspecified),inactive,active,active
C[C@H](CO)N1C[C@H](C)[C@H](CN(C)S(=O)(=O)c2ccccc2)Oc2c(NC(=O)c3ccncc3)cccc2C1=O,inactive,inactive,inactive
C[C@H](CO)N1C[C@H](C)[C@@H](CN(C)S(=O)(=O)c2ccccc2)Oc2ccc(NC(=O)C3CC3)cc2C1=O,inactive,inactive,inactive
CC[C@@H](C)n1[nH]c(=O)cc1N,inactive,inactive,inactive
NCCCNCCCCNCCCN,inactive,inactive,inactive

SMILES,cytotoxicity call (HSkMC),cytotoxicity call (HepG2),growth inhibition call (S. aureus RN4220)
Cc1noc(C)c1NC(=O)N(C)C[C@H]1OCCCC[C@H](C)Oc2ccc(NC(=O)Cc3ccccc3)cc2C(=O)N([C@@H](C)CO)C[C@H]1C,inactive,inactive,inactive
C[C@H](CO)N1C[C@H](C)[C@H](CN(C)C(=O)c2ccccc2)OCCCC[C@H](C)Oc2ccc(NC(=O)C3CCCCC3)cc2C1=O,inactive,inactive,inactive
C[C@H](CO)N1C[C@H](C)[C@H](CN(C)Cc2ccc(F)cc2)Oc2ncc(-c3cccc(C(F)(F)F)c3)cc2C1=O,inactive,inactive,inactive
C[C@H]1CN([C@@H](C)CO)C(=O)c2cc(NC(=O)Nc3cccc4ccccc34)ccc2O[C@@H]1CN(C)C(=O)NC1CCCCC1,inactive,inactive,inactive
CCOC(=O)C(=O)NCc1nnnn1-c1ccccc1,inactive,inactive,inactive
CN1CCN(C(=O)C[C@@H]2CC[C@@H]3[C@H](COC[C@@H](O)CN3C(=O)C3CCOCC3)O2)CC1,inactive,inactive,inactive
CN(C)CCCNC(=O)C[C@@H]1C=C[C@@H](NS(=O)(=O)c2ccccc2)[C@@H](CO)O1,inactive,inactive,inactive
Cc1ccc(S(=O)(=O)Nc2cccc3c2O[C@@H](CN(C)C(=O)NC(C)C)[C@H](C)CN([C@H](C)CO)C3=O)cc1,inactive,inactive,inactive
Cc1ccc(Nc2nc(-c3ccc(C)cc3)c(C)s2)cc1,inactive,inactive,inactive
C[C@H](CO)N1C[C@H](C)[C@@H](CN(C)S(=O)(=O)c2cn(C)cn2)Oc2ccc(NS(=O)(=O)c3ccc(F)cc3)cc2C1=O,inactive,inactive,inactive
CO[C@H]1CN(C)C(=O)c2ccc(NS(=O)(=O)c3cn(C)cn3)cc2OC[C@@H](C)N(CCC(F)(F)F)C[C@H]1C,inactive,inactive,inactive
COc1ccc(S(=O)(=O)Nc2ccc3c(c2)C(=O)N([C@@H](C)CO)C[C@H](C)[C@H](CN(C)Cc2ccc(C(F)(F)F)cc2)OCCCC[C@@H](C)O3)cc1,inactive,inactive,inactive
C[C@@H]1CN([C@H](C)CO)C(=O)Cc2cc(NC(=O)Cn3cnnn3)ccc2O[C@@H]1CN(C)Cc1ccc(Oc2ccccc2)cc1,inactive,inactive,inactive
Cc1ccc(S(=O)(=O)Nc2ccc3c(c2)C(=O)N([C@@H](C)CO)C[C@@H](C)[C@@H](CN(C)Cc2ccc(C(=O)O)cc2)OCCCC[C@@H](C)O3)cc1,inactive,inactive,inactive
CCS(=O)(=O)NCC[C@@H]1CC[C@@H](NC(=O)C2CCOCC2)[C@@H](CO)O1,inactive,inactive,inactive
O=C(C[C@H]1CC[C@@H]2[C@H](COC[C@@H](O)CN2S(=O)(=O)c2ccc(F)cc2)O1)N[C@@H]1CCN(Cc2ccccc2)C1,inactive,inactive,inactive
Nc1nnc(SCC(=O)N2CCOCC2)[nH]1,inactive,inactive,inactive
O=C(NCCN1CCCC1)[C@@H]1[C@@H](CO)[C@@H]2Cn3c(cccc3=O)[C@H]1N2C(=O)c1ccccc1,inactive,inactive,inactive
CO[C@H]1C[C@H](O[C@@H]2/C(C)=C/C[C@@H]3C[C@@H](C[C@]4(CC[C@H](C)[C@@H](C5CCCCC5)O4)O3)OC(=O)[C@@H]3C=C(C)/C(=N/O)[C@H]4OC/C(=C\C=C\[C@@H]2C)[C@]43O)O[C@@H](C)[C@@H]1O,active,active,active

SMILES,cytotoxicity call (HSkMC),cytotoxicity call (HepG2),growth inhibition call (S. aureus RN4220)
O=C(NCC1CC1)c1cc2c(c(-c3cccc(-c4ccccc4F)c3)n1)[C@@H](CCO)N(C(=O)CC1CC1)C2,inactive,inactive,inactive
Cc1noc(C)c1NC(=O)N(C)C[C@@H]1Oc2c(NC(=O)Nc3cccc4ccccc34)cccc2C(=O)N([C@@H](C)CO)C[C@@H]1C,inactive,inactive,inactive
O=NN(CCCl)C(=O)NCCCl,inactive,inactive,inactive
C[C@@H]1CN([C@H](C)CO)C(=O)c2cc(NC(=O)NC3CCCCC3)ccc2O[C@H]1CN(C)Cc1ccc(-c2ccccc2)cc1,inactive,inactive,inactive
Cc1ccc(S(=O)(=O)N(C)C[C@@H]2OCCCC[C@H](C)Oc3ccc(NC(=O)Nc4ccc(F)cc4)cc3C(=O)N([C@@H](C)CO)C[C@@H]2C)cc1,inactive,inactive,inactive
COc1ccc(C#Cc2cnc3c(c2)C(=O)N([C@H](C)CO)C[C@H](C)[C@H](CN(C)S(=O)(=O)c2ccc(C#N)cc2)O3)cc1OC,inactive,inactive,inactive
C[C@@H]1CN([C@@H](C)CO)C(=O)c2cccc(NS(C)(=O)=O)c2O[C@H]1CN(C)C(=O)Nc1ccc(F)cc1,inactive,inactive,inactive
C[C@@H]1CCCCO[C@@H](CN(C)Cc2ccc(C(=O)O)cc2)[C@H](C)CN([C@@H](C)CO)C(=O)c2cc(NS(=O)(=O)c3cccs3)ccc2O1,inactive,inactive,inactive
C[C@H]1CN([C@@H](C)CO)C(=O)c2cccc(NC(=O)NC3CCCCC3)c2O[C@@H]1CN(C)S(C)(=O)=O,inactive,inactive,inactive
Cn1c(S(=O)(=O)CC(N)=O)nc2ccccc21,inactive,inactive,inactive
C[C@@H]1CCCCO[C@@H](CN(C)Cc2ccccc2)[C@H](C)CN([C@H](C)CO)C(=O)c2cc(NC(=O)Nc3cccc4ccccc34)ccc2O1,inactive,inactive,inactive
O=C(C[C@H]1C[C@@H]2c3cc(NS(=O)(=O)c4ccc(F)cc4)ccc3O[C@@H]2[C@H](CO)O1)NCCN1CCCCC1,inactive,inactive,inactive
C[C@@H]1CN([C@@H](C)CO)C(=O)Cc2cc(NS(=O)(=O)c3cn(C)cn3)ccc2O[C@H]1CN(C)Cc1ccc(C(=O)Nc2ccccc2N)cc1,inactive,inactive,inactive
CC(=O)N1C[C@@H](O)C[C@H]1C(=O)O,inactive,inactive,inactive
CCC(C)C1OC2(CCC1C)CC1CC(CC=C(C)C(OC3CC(OC)C(OC4CC(OC)C(O)C(C)O4)C(C)O3)C(C)C=CC=C3COC4C(O)C(C)=CC(C(=O)O1)C34O)O2 (stereo unspecified),inactive,active,inactive
C[C@@H]1CCCCO[C@H](CN(C)S(C)(=O)=O)[C@H](C)CN([C@@H](C)CO)C(=O)c2cc(NC(=O)CCCN(C)C)ccc2O1,inactive,inactive,inactive
COc1cc(O)c(C(=O)O)c(O)c1,inactive,inactive,inactive
C[C@@H]1CCCCO[C@@H](CN(C)CC2CCCCC2)[C@H](C)CN([C@@H](C)CO)C(=O)c2cc(NS(=O)(=O)c3ccc(F)cc3)ccc2O1,inactive,active,inactive
COCCOC(=O)N1C(=O)[C@@]2(c3cc(C#CC4=CCCCC4)ccc31)[C@H](c1ccc(OCCO)cc1)N1[C@H](c3ccccc3)[C@H](c3ccccc3)OC(=O)[C@H]1[C@@H]2C(=O)N1CCCCCCC1,inactive,inactive,inactive

# — the antibiotic and cytotoxicity screens of Wong et al. (2023)
